Hit rate of the full screen: of about 310,000 compounds, about 2,200 (0.71%) showed an effect of 50% or more. The effect is printed as a negative number. Some of the results follow.

This assay deals with human ether-à-go-go-related gene (hERG) potassium channel (human, UniProt Q12809). In words: primary screen, population patch clamp on CHO cells stably expressing hERG.
Sequence of human ether-à-go-go-related gene (hERG) potassium channel (Q12809 whole entry, looked up): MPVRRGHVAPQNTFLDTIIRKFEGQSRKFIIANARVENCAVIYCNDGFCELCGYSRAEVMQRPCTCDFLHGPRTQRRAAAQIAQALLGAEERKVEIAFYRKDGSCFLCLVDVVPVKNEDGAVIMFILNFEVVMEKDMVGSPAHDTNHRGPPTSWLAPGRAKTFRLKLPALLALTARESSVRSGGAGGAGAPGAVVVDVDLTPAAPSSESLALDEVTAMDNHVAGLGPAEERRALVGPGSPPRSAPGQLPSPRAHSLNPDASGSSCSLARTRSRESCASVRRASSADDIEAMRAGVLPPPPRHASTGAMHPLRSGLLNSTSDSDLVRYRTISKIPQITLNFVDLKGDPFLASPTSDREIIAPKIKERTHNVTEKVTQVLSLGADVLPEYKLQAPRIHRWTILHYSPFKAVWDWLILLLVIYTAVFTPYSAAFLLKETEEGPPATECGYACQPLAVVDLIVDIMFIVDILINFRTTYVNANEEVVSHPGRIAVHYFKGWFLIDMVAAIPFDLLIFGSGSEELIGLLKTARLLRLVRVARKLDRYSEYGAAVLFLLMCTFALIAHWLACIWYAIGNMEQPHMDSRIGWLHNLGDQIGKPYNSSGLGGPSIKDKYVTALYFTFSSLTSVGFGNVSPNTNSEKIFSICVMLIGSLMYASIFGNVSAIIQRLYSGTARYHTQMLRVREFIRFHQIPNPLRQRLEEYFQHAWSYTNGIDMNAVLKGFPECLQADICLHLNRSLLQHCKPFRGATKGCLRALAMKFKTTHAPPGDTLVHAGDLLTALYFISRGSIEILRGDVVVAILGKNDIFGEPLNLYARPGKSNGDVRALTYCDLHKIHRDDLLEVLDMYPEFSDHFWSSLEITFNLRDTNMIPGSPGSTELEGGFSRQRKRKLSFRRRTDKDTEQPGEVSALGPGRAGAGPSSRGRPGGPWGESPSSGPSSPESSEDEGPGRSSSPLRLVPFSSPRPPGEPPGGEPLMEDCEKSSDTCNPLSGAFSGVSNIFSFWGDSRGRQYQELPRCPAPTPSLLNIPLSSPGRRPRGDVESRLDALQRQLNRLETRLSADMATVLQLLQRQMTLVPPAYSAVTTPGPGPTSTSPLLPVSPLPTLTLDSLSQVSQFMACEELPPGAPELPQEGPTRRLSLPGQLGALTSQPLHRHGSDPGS
As for `O=C(NNC(=O)c1cccnc1)c1ccncc1`, the “hERG current change (%, negative = inhibition) at 1uM” value was 13.8%.
Next, `CCN1C(=O)C(CC(=O)Nc2ccc(OC)cc2)N(CCCN2CCN(c3ccc(OC)cc3)CC2)C1=S` (centres unmarked): -23%.
Consider `COC(=O)CSc1nc2c(c(-c3ccc(C)o3)c1C#N)CCCC2`, for which the “hERG current change (%, negative = inhibition) at 1uM” value was found to be 3.99%.
Regarding `C=CCN1C(=O)C(Cc2cccc(Cl)c2)SC1=Nc1ccc(C(=O)O)cc1` (centres unmarked), the “hERG current change (%, negative = inhibition) at 1uM” value turned out to be 4.34%.
In the case of `CC(CNS(=O)(=O)c1ccccc1)(c1ccccc1)N1CCOCC1.Cl` (centres unmarked), the “hERG current change (%, negative = inhibition) at 1uM” value was found to be 11.5%.
Next, `CCOc1ccccc1C(=O)NC(C(=O)Nc1cccc(S(N)(=O)=O)c1)C(C)C` (centres unmarked): 16%.
`N#Cc1c(NC2CCCCC2)nc(-c2ccco2)c2c1CCCC2`: the “hERG current change (%, negative = inhibition) at 1uM” value is 17.3%.
For the molecule `COc1ccccc1/C=N/NC(=O)CN(C1=NS(=O)(=O)c2ccccc21)c1ccccc1`, the “hERG current change (%, negative = inhibition) at 1uM” value is 7.01%.
The same measure for `Cc1cccc(NC(=O)CCCCCN2C(=O)c3ccccc3C2=O)n1`: 2.38%; for `CCCCNC(=O)Nc1ccc(C(O)(C(=O)OC)C(F)(F)F)cc1` (centres unmarked): -2.2%; for `c1ccc(Nc2nc(NCCN3CCOCC3)nc(Nc3ccccc3)n2)cc1`: 21.6%.
Next, `O=C(O)C[C@@H](O)C(=O)O`: 16.7%; `CC1CCCCN1CCCNc1c(C=O)c(=O)[nH]c2ccccc12` (centres unmarked): 10.1%.
Turning to `CC(=O)CSc1nc2ccc(Nc3nc(N4CCOCC4)nc(N4CCOCC4)n3)cc2s1`, the “hERG current change (%, negative = inhibition) at 1uM” value is 17.3%.
With `COc1ccc2c(c1)O/C(=C\c1ccco1)C2=O`, the “hERG current change (%, negative = inhibition) at 1uM” value amounted to 0.56%.
`O=C(COC(=O)CNS(=O)(=O)c1ccccc1)NC12CC3CC(CC(C3)C1)C2`: the “hERG current change (%, negative = inhibition) at 1uM” value is -11.1%.
As to `Cc1nsc(Nc2ccccc2)c1C#N`, the “hERG current change (%, negative = inhibition) at 1uM” value was determined as 4.98%.
Next, `CCOc1ccc2[nH]c(=O)c(CN(CCc3ccccc3)C(=O)N3CCOCC3)cc2c1`: 0.203%; `COc1ccc(C(C)=O)cc1CSc1nnc(C)s1`: 14.7%.
The same measure for `O=C(Cn1ccc2ccccc2c1=O)NCC(=O)Nc1ccc(F)cc1F`: 14%; for `O=C1C2CC=C(Cl)CC2C(=O)N1CCc1c[nH]c2ccccc12` (centres unmarked): 8.44%; for `C/C(=N\Nc1ncc(Cl)cc1Cl)c1cccs1`: 3.47%.
On to `CCOC(=O)c1nn(-c2ccccc2)c(=O)cc1SC(C)CC` (centres unmarked), for which the “hERG current change (%, negative = inhibition) at 1uM” value came out at 15.9%.
The same measure for `COc1ccc(-c2noc3c2-c2nc(-c4ccccc4Cl)sc2CC3)cc1`: 10.9%; for `COc1ccc(C(=O)Nc2ccc3nc4n(c(=O)c3c2)CCCC4)cc1[N+](=O)[O-]`: 13.7%.
Next, `CCOc1cccc(Oc2ncccc2C(=O)/C(C#N)=C/N(C)C)c1`: 21.9%; `COc1ccc2c(c1OC)C(=O)OC2Nc1nc(-c2cccc([N+](=O)[O-])c2)cs1` (centres unmarked): 15.4%; `CCOC(=O)N1CCN(c2c(N3CCN(c4ccc(OC)cc4)CC3)c(=O)c2=O)CC1`: -13.3%.
Next, `CCOC(=O)c1c(C)[nH]c(C)c1S(=O)(=O)NCCc1ccc(SC)cc1`: 16.8%; `O=C1CC(N2CCC(c3nc4ccccc4[nH]3)CC2)C(=O)N1c1cccc(F)c1` (centres unmarked): -1.4%; `O=C(Nc1ccc(Cl)c(Cl)c1)NC1CCS(=O)(=O)C1` (centres unmarked): 12.8%.
For `Cl.O=C(CCN1C(=O)c2ccccc2S1(=O)=O)N1CCN(c2ccccc2)CC1`, the “hERG current change (%, negative = inhibition) at 1uM” value is reported as 8.63%.
The same measure for `CC(C)OCCCNC(=O)c1ccc(CS(=O)(=O)Cc2ccccc2F)o1`: 4.44%; for `CCSc1nc(=S)cc(C)[nH]1`: 4.66%.
For `Cc1ccc(C(O)(c2ccccc2)c2ccccc2C(C)N(C)C)c(C)c1` (centres unmarked), the “hERG current change (%, negative = inhibition) at 1uM” value is on record as 9.73%.
For `CCOC(=O)c1sc2ncn(C(CC)C(=O)OCC)c(=O)c2c1C` (centres unmarked), the “hERG current change (%, negative = inhibition) at 1uM” value is 10.7%.
The same measure for `NC(=O)CC(NC(=O)c1cccc(Br)c1)c1ccc(NC2CCCCCCCCCCC2)c([N+](=O)[O-])c1` (centres unmarked): 10.1%.
As for `CCn1c(SCC(=O)Nc2ccc(C)cc2)nc2sc3c(c2c1=O)CCN(C)C3`, the “hERG current change (%, negative = inhibition) at 1uM” value is reported as 10.5%.
As for `CCOC(=O)c1ccc(NC(=O)CC2C(=O)N(c3ccccc3)C(=O)N2CCCOC)cc1` (centres unmarked), the “hERG current change (%, negative = inhibition) at 1uM” value was 3.69%.
In the case of `O=C(NCc1ccc(Cl)s1)C1CCC(=O)N(CCc2cccc(F)c2)C1` (centres unmarked), the “hERG current change (%, negative = inhibition) at 1uM” value is given as -44%.
For the molecule `CCOc1ccccc1NC(=O)C1C2C=CC(O2)C1C(=O)O` (centres unmarked), the “hERG current change (%, negative = inhibition) at 1uM” value was found to be 11.4%.
For the molecule `O=C1CC(c2ccc3ccccc3c2)NN1` (centres unmarked), the “hERG current change (%, negative = inhibition) at 1uM” value turned out to be 7.6%.
With `Cn1c2ccccc2c2ncn(CCC3=CCCCC3)c(=O)c21`, the “hERG current change (%, negative = inhibition) at 1uM” value is given as 8.44%.
`O=C(CCCc1nc2ccccc2s1)N1CCN(c2ccccc2F)CC1`: the “hERG current change (%, negative = inhibition) at 1uM” value is given as -2.81%.
For `Cc1ccc(C(=O)CCS(=O)(=O)c2ccc(Br)cc2)cc1`, the “hERG current change (%, negative = inhibition) at 1uM” value turned out to be 8.49%.
For the molecule `CCn1c(SCC(=O)N2CCCCC2)nc2c1c(=O)n(C)c(=O)n2C`, the “hERG current change (%, negative = inhibition) at 1uM” value was determined as 12.5%.
For `Cc1cccc(N2CCN(C(=O)Cn3cnc4c3c(=O)n(C)c(=O)n4C)CC2)c1C`, the “hERG current change (%, negative = inhibition) at 1uM” value is -1.92%.
The same measure for `NC(=O)[C@@H]1CCCCNc2c(F)cc([N+](=O)[O-])cc2C(=O)N[C@@H](CC(=O)O)C(=O)NCC(=O)N1`: 7.87%; for `CC(C(=O)O)n1cnc2sc3c(c2c1=O)CCCC3` (centres unmarked): 0.243%.
For `O=C(COC(=O)C1CCN(c2ccc(C(F)(F)F)cn2)CC1)Nc1ccc(Cl)cc1`, the “hERG current change (%, negative = inhibition) at 1uM” value is 3.73%.
Next, `COC(=O)Nc1ccc(S(=O)(=O)NC2CCCCC2)cc1`: 19.4%.
The same measure for `CC1CCN(S(=O)(=O)c2ccc(C(=O)Nc3ccccn3)cc2)CC1`: 4.4%.
As for `CCN(CC)S(=O)(=O)c1cccc(NC(=O)c2ccc(C#N)cc2)c1`, the “hERG current change (%, negative = inhibition) at 1uM” value came out at 3.29%.
The same measure for `COc1ccc(CCNC(=O)c2ccc3c(c2)OCCO3)cc1`: 5.71%; for `CCc1ccc(N=C2NC(=O)/C(=C/c3cc(Br)c(OCC(=O)O)c(OC)c3)S2)cc1`: 1.15%; for `COC(=O)c1ccc(CNC(=O)CN(CCC(C)C)S(=O)(=O)c2ccc3c(c2)OCCO3)cc1`: -1.72%.
The same measure for `Cc1ccc(NC(=O)CSc2nc3ccccc3c3nc(CCn4cncc4C)nn23)c(C)c1`: 12.3%; for `Clc1ccc(-c2csc(N/N=C/c3ccco3)n2)cc1`: 11.8%.
For `Nc1nonc1NC(=O)CSc1ncccc1C(=O)O`, the “hERG current change (%, negative = inhibition) at 1uM” value is listed as 11.8%.
For the molecule `Cc1ccc(Cl)cc1NC1=NC(=S)N(C(C)C)C12CCCCC2`, the “hERG current change (%, negative = inhibition) at 1uM” value is recorded as 16.2%.
`CN1CCC(=O)N([C@H](CO)Cc2ccccc2)CC1`: the “hERG current change (%, negative = inhibition) at 1uM” value came to 6.48%.
Next, `O=C(COC(=O)CNC(=O)c1ccco1)NCc1ccc(F)cc1`: 10.4%; `CCOc1ccc(Cc2n[nH]c(=S)n2Cc2ccccc2)cc1`: 8.61%; `COc1cc(OC)c(-n2cc(-c3ccc(OC)c(OC)c3)[nH]c2=S)cc1Cl`: 12.6%.
Take `CCCc1ccc(OCc2ccc(C(=O)OC)o2)c(OC)c1`: the “hERG current change (%, negative = inhibition) at 1uM” value is given as 0.548%.
With `CCN1CCN(CCNC(=O)c2cn(Cc3ccccc3F)nn2)CC1`, the “hERG current change (%, negative = inhibition) at 1uM” value is given as 12.2%.
On to `NC(=O)c1ccc(NCC2COc3ccccc3O2)c([N+](=O)[O-])c1` (centres unmarked), for which the “hERG current change (%, negative = inhibition) at 1uM” value was 8.17%.
Next, `COc1cc2c(C(=O)NCCCN3CCN(c4cccc(Cl)c4)CC3)cn(C)c(=O)c2cc1OC`: -6.52%.
`Cc1ccc(-c2ccc(SCC(=O)Nc3nonc3C)nn2)cc1`: the “hERG current change (%, negative = inhibition) at 1uM” value is 13.9%.
As for `O=C(NCc1cn(-c2ccccc2)nc1-c1ccccc1)c1cc([N+](=O)[O-])cc([N+](=O)[O-])c1`, the “hERG current change (%, negative = inhibition) at 1uM” value stood at 10%.
On to `Cc1ccc(-n2ccnc(SCC(=O)NCCc3ccccc3)c2=O)cc1F`, for which the “hERG current change (%, negative = inhibition) at 1uM” value came to 16.1%.
Next, `Cc1onc(-c2ccccc2Cl)c1C(=O)N1CCN(c2cccc(Cl)c2)CC1`: 10.7%.
The same measure for `CN(C)S(=O)(=O)c1ccc(Cl)c(C(=O)OCC(=O)NC(=O)c2cccn2C)c1`: 6.7%.
Next, `CCN(CC)c1ccc(N=Cc2c(O)[nH]c(=O)[nH]c2=O)cc1`: 11.7%.
On to `CCOc1ccccc1CNC(=O)c1cc2oc3ccccc3c2n1CC`, for which the “hERG current change (%, negative = inhibition) at 1uM” value is -0.472%.
The same measure for `CCCCNC(=O)Cn1nc(Cc2ccncc2)c2ccccc2c1=O`: 26.5%; for `O=C(Nc1ccccn1)C1(c2cccs2)CCOCC1`: 7.28%.
The same measure for `Cn1cc(C(=O)N/N=C/c2cc(Br)cs2)c2ccccc21`: 13.8%; for `CC1(C)N([O-])c2cc([N+](=O)[O-])ccc2[N+]1=O.NO`: 12.6%.
The same measure for `Cc1ccccc1NC(=O)COc1ccc2c(c1)OC(C)(C)CC2=O`: 13.8%; for `COc1cc(OC)c(OC)cc1/C=N/n1c(COc2ccccc2)n[nH]c1=S`: 10.7%.
As to `COc1ccc(-n2c(-c3ccc(Br)cc3)n[nH]c2=S)cc1`, the “hERG current change (%, negative = inhibition) at 1uM” value is recorded as 14%.
Next, `CCC(C)NC(=O)Cn1cnc([N+](=O)[O-])c1` (centres unmarked): 11.2%; `COc1cc2cc(C)c3nnc(SCC(=O)Nc4cc(C)on4)n3c2cc1OC`: 12.4%; `CCOC(=O)Nc1c(C(=O)OC)[nH]c2cccc(OC)c12`: 13.7%.
With `COc1ccc(CN(C(=O)c2snc(C(N)=O)c2N)C(C(=O)NC2CCCC2)c2ccco2)cc1` (centres unmarked), the “hERG current change (%, negative = inhibition) at 1uM” value is 2.77%.
In the case of `Cc1n(N)c2ccccc2[n+]1CC(=O)c1ccccc1.[Br-]`, the “hERG current change (%, negative = inhibition) at 1uM” value turned out to be 7.93%.
The same measure for `COc1ccc(C(=O)OC(C)CN2CCOCC2)cc1OC.Cl` (centres unmarked): 8.2%; for `CC(=O)Nc1nnc(SCc2cc(=O)c(OC(=O)c3ccccc3)co2)s1`: 10.5%.

Values taken from paper PMC4336329 (PLoS ONE, 2015).
